Here are results for 19 variants from the RNAGym collection of RNA variant scans (doi:10.1073/pnas.2313332121).

Variants at the floor of the assay are shown more often than the library holds them.

To fix the notation:
B1: TPR 5TU (parent)
chain: GGAUCUUCUCGAUCUAACAAAAAAGACAAAUCUGCCACAAAGCUUGAGAGCAUCUUCGGAUGCAGAGGCGGCAGCCUUCGGUGGCGCGAUAGCGCCAACGUUCUCAACUAUGACACGCAAAACGCGUGCUCCGUUGAAUGGAGUUUAUCAUG

In this data set the parent is B1. Kind of data set: polymerase ribozyme fitness, log enrichment relative to wild type (log ratio); higher = more active; in vitro selection for triplet polymerase activity. The method in brief: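 Mutant libraries for each subunit of a heterodimeric triplet polymerase ribozyme were made by PCR and then transcribed. Each library underwent one round of in vitro selection in triplicate: annealing with a biotinylated primer, the partner subunit and triplets, frozen incubation at −7 °C, gel excision of extended constructs, streptavidin-bead capture and RT-PCR. Input and output libraries were Illumina-sequenced, and only genotypes with ≥10 input reads and ≥1 read per output were kept. Fitness is the logarithm, base 2, of genotype enrichment over wild-type enrichment, computed from inverse-variance-weighted replicate averages.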
For the variant GGAUCUUCUCGAUCUAACAAAAAAGACAAAUCUGCCACAAAGCUAGAGAGCAUCUUCAGAUGCAGAGGCGGCAGCCUUCGGUGGCGCGAUAGCGCCAACGUUCUCAACUAUGACACGCAAAACGCGUGCUCCGUUGAAUGGAGUUUAUCAUG [U45A G58A], the “polymerase ribozyme fitness (log ratio)” value is -1.48.
For the variant GGAUCUUCUCGAUCUAACAAAAAAGACAAAUCUGCCACAAAGCUAGAGAGCAUCUUCGGAUGAAGAGGCGGCAGCCUUCGGUGGCGCGAUAGCGCCAACGUUCUCAACUAUGACACGCUAAACGCGUGCUCCGUUGAAUGGAGUUUAUCAUG [U45A C63A A119U], the “polymerase ribozyme fitness (log ratio)” value was at most -4.2.
Turning to GGAUCUUCUCGAUCUAACAAAAAAGACAAAUCUGCCACAAAGCGUGAGAGCAUCUUCUGAUGCAGAGGCGGCAGCCUUCGGUGGCGCGAUAGCGCCAGCGUUCUCAACUAUGACACGCAAAACGCGUGCUCCGUUGAAUGGAGAUUAUCAUG [U44G G58U A98G U144A], the “polymerase ribozyme fitness (log ratio)” value is at most -4.2.
GGAUCUUCUCGAUCUAACAAAAAAGACAAAUCUGCCACAAAGCGUGAGAGCAUCUUCGCAUGCAGAGGCGGCAGCCUCCGGUGGCGCGAUAGCGCCAACGUUCUCAACUAUGACACUCAAAACGCGUGCUCCGUUGAAUGGACUUUAUCAUG [U44G G59C U78C G117U G143C]: the “polymerase ribozyme fitness (log ratio)” value is at most -4.2.
Regarding GGAUCUUCUCGAUCUAACAAAAAAGACAAAUCUGCCACAAAGCGUGAGAGCAUCUUCGUAUGCAGAGGCGGCAGCCUUCGGUGGCGCGAUAGCGCCAACGUUAUCAACUAUGACACGCAAAACGCGUGCUGCGUUGAAUGGAGUUUAUCAUG [U44G G59U C103A C131G], the “polymerase ribozyme fitness (log ratio)” value was at most -4.2.
Regarding GGAUCUUCUCGAUCUAACAAAAAAGACAAAUCUGCCACAAAGCUAGAGAGCAUCUUCGGAUGCAGAGGCGGCAGCCUUCGGUGGAGGGAUAGCGCCAACGUUCUCAACUAUGAAACGCAAAACGCGUGCUCCGUUGCAUGGAGUUUAUCAUG [U45A C85A C87G C114A A137C], the “polymerase ribozyme fitness (log ratio)” value was at most -4.2.
In the case of GGAUCUUCUCGAUCUAACAAAAAAGACAAAUCUGCCACAAAGCUAGAGAGCAUCUUCGGAUGUAGAGGCGGCAGCCUUCGGUGGCGCGAUAGCGCCAACGUUCUCAACUAUGACACGCAACACGCGUGCUCCGUUGAAUGGAGUUUAUCAUG [U45A C63U A121C], the “polymerase ribozyme fitness (log ratio)” value was -3.18.
In the case of GGAUCUUCUCGAUCUAACAAAAAAGACAAAUCUGCCACAAAGCUAGAGAGCAUCUUCGGAUGCAGAGGCGGCAGCCUUCGGUGGCGCGAUAGUGCCAGCGUUCUCAACUAUGACACGCAAAACGCGUGCUCCGUUGAAUGGAGUUUAUCAUG [U45A C93U A98G] it was at most -4.2.
Take GGAUCUUCUCGAUCUAACAAAAAAGACAAAUCUGCCACAAAGCUAGAGAGCAUCUUCGGAUGCAGUGGCGACAGCCUUCGGUGGCGCGAUAGCGCCAACGUUCUCAACUAUGACACGCAAAACGCGUGCUCCGUUGAAUGGAGUUUAUCAUG [U45A A66U G71A]: the “polymerase ribozyme fitness (log ratio)” value was at most -4.2.
With GGAUCUUCUCGAUCUAACAAAAAAGACAAAUCUGCCACAAAGCUAGAGAGCAUCUUGGGAUGCAGAGGCGACAGCCUUCGGUGGUGCGAUAGCCCCAACGUUCUCAACUAUGACACGCAAAUCGCGUGCUCCGUUGAAUGGAGUUUAUCAUG [U45A C57G G71A C85U G94C A122U], the “polymerase ribozyme fitness (log ratio)” value is at most -4.2.
With GGAUCUUCUCGAUCUAACAAAAAAGACAAAUCUGCCACAAAGCGUGAGAGCAUCUCAGAAUGCAGAGGCGGCAGCCUUCGGUGGCGCGAUAGUGCCAUCGUUCUCAACUAUGACACGCAAAACGCGUGCUCCGUUGAAUGGAGUUUAUCAUG [U44G U56C C57A G59A C93U A98U], the “polymerase ribozyme fitness (log ratio)” value was at most -4.2.
Regarding GGAUCUUCUCGAUCUAACAAAAAAGACAAAUCUGCCACAAAGCUAGAGAGCCGCUUCGGAUGCAGAGGCCGCAGCCUUCGGUGGCGCGAUAGCGCCAACGUUCUCAACUAUGACACGCAAAACGCGUGCUCCUUUGAAUGAAGUUUAUCAUG [U45A A52C U53G G70C G133U G141A], the “polymerase ribozyme fitness (log ratio)” value is at most -4.2.
On to GGAUCUUCUCGAUCUAACAAAAAAGACAAAUCUGCCACAAAGCUAGAGAGCAUCUUCGGAUGCAGAGGCGGCAGCCUUCGGUGGCGUGAUAGCGCCAAUGUUCUCAACUAUGACACGCUAAACGCGUGCUCCGUUGAAUGGAGUUUAUCAUG [U45A C87U C99U A119U], for which the “polymerase ribozyme fitness (log ratio)” value is at most -4.2.
Regarding GGAUCUUCUCGAUCUAACAAAAAAGACAAAUCUGCCACAAAGCUAGGGAGCAUCUUCGGAUGCAGAGGCGGCAGCCUUCGGUGGCGAGAUAGCGCCAACGUUCUCAACUAUGACACGCAAAACGCGUGCUCCGUUGAAUGGAGUUUAUCAUG [U45A A47G C87A], the “polymerase ribozyme fitness (log ratio)” value was at most -4.2.
Regarding GGAUCUUCUCGAUCUAACAAAAAAGACAAAUCUGCCACAAAGCUAGAGAGCAUCUUCGGAUGCAGAGGCGGCAGCCUUCGGUGGAGCGAUAGCGCCAACGUUCUCAACUAUGACACGCUAAACGCGUGCUCCGUUGAAUGGAGUUUAUCAUG [U45A C85A A119U], the “polymerase ribozyme fitness (log ratio)” value is at most -4.2.
As for GGAUCUUCUCGAUCUAACAAAAAAGACAAAUCUGCCACAAAGCGUGAGAGCAUCUUCGGAUGCAGAGGCGGCAGCCUUCGGUGGCGGCAUAGCGCCAACGUUCUCAACUAUGAUACGCAAAACGCGUGCUCCGUUGCAUGGAGCUUAUCAUG [U44G C87G G88C C114U A137C U144C], the “polymerase ribozyme fitness (log ratio)” value was at most -4.2.
In the case of GGAUCUUCUCGAUCUAACAAAAAAGACAAAUCUGCCACAAAGCUAGAGAGCAUCUUCCGAUGCAGAGGCGGCAGCCUUCGGUGGCGCGAUAGCGCAAACGUUCUCAACUAUGACACGCAAAACGCGGGCUCCGUUGAAUGGAGUUUAUCAUG [U45A G58C C96A U127G], the “polymerase ribozyme fitness (log ratio)” value was at most -4.2.
For the variant GGAUCUUCUCGAUCUAACAAAAAAGACAAAUCUGCCACAAAGCGUGAGAGCAUCUUCGGAUGCAGAGGCGGCAGCCUUCGGUGGCGCGAUAGAGCCAACGUUCUCAACUAUGACACGCAAUACGCGUGCUCCGUUGAAUGAAGUUUAUCAUG [U44G C93A A121U G141A], the “polymerase ribozyme fitness (log ratio)” value is at most -4.2.
In the case of GGAUCUUCUCGAUCUAACAAAAAAGACAAAUCUGCCACAAAGCUAGUGAGCAUCUUCGGAUGCAGAGGCGGCAGCCUUUGGUGGCGCGAUAGCGCCAACGUUCUCAACUAUGACAAGCAAAACGCGUGCUCCGUUGAAUGGAGUUUAUCAAG [U45A A47U C79U C116A U151A] it was at most -4.2.
